# PubChem BioAssay (Tox21)
# Values joined by “and” are separate entries in the source; they are usually repeats but may differ in a detail not shown here. Equal entries are not always repeated. The shares of active, inactive and inconclusive entries below differ from those in the screen. For some assays here: Potencies of inconclusive entries are doubtful fits and often do not repeat. Where a structure was tested more than once in an assay, its records may differ in their call. Active and inactive are the calls of the source. Unless noted, the call rests on the fitted dose curve; in most records, active means well fitted curve in the direction sought with a large enough effect in the repeat runs; inconclusive means weak or mixed curves; inactive means no such curve, though single readings can be large; an effect the other way counts as inactive or inconclusive.
# What was measured:
# [1] = target: Peroxisome proliferator-activated receptor gamma (Homo sapiens) (UniProt P37231); assay: qHTS assay to identify small molecule antagonists of the peroxisome proliferator-activated receptor gamma (PPARg) signaling pathway (AID 743191; calls by dose curve; further: nearly all actives have a fitted effect of over 30% in size; further: potency means the concentration at half of the fitted maximal effect; on ratio activity, negative = inhibition: on the % scale 0 is the no-effect control and ±100 the full control effect); conditions: HEK293H PPARg-UAS-bla, beta-lactamase ratio, antagonist, 17 h
# How it was run: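 Beta-lactamase reporter under UAS control in HEK293H PPARg-bla cells; compound treatment 17 h at 37C. Read-out: fluorescence intensity after 1 h room-temperature incubation with LiveBLAzer B/G FRET substrate.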
# [2] = qHTS assay for small molecule agonists of the antioxidant response element (ARE) signaling pathway (AID 743202; active means well fitted activation curve with a large enough effect in the signal ratio in the repeat runs, not every such curve was filed as active; inconclusive means weak or mixed curves, or effect the other way; inactive means no such curve, though single readings can be large or run the other way; the % refers to the signal ratio; further: potency means the concentration at half of the fitted maximal effect); conditions: HepG2 ARE-bla reporter, beta-lactamase FRET, 16 h; activation: at 73.3 µM (top of the series) unless noted
# How it was run: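 Quantitative high-throughput format in HepG2 cells bearing an integrated ARE-beta-lactamase reporter. Compound exposure lasted 16 h at 37 C, and fluorescence was read 2 h after adding LiveBLAzer B/G substrate at room temperature.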
# [3] = target: Peroxisome proliferator-activated receptor delta (Homo sapiens) (UniProt Q03181); assay: qHTS assay to identify small molecule agonists of the peroxisome proliferator-activated receptor delta (PPARd) signaling pathway (AID 743212; calls by dose curve;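 further: HEK293H cells with PPARd UAS beta-lactamase reporter GeneBLAzer system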; further: potency means the concentration at half of the fitted maximal effect; on activation: on the % scale 0 is the no-effect control and ±100 the full control effect); conditions: HEK293H PPARd-UAS-bla, beta-lactamase FRET ratio, 17 h; activation: at 62.6 µM (top of the series) unless noted
# How it was run: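 HEK293H PPARd-bla cells; 5 h preincubation 37 C/5% CO2; compound (DMSO) 37 C; LiveBLAzer B/G FRET substrate 2 h RT; fluorescence intensity.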
# [4] = target: Peroxisome proliferator-activated receptor delta (Homo sapiens) (UniProt Q03181); assay: qHTS assay to identify small molecule antagonists of the peroxisome proliferator-activated receptor delta (PPARd) signaling pathway (AID 743215; active means well fitted inhibition curve with a large enough effect in the signal ratio in the repeat runs, not every such curve was filed as active; inconclusive means weak or mixed curves, or effect the other way; inactive means no such curve, though single readings can be large or run the other way; the % refers to the signal ratio;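 further: cells stimulated with agonist L165041 at 300 nM final during compound exposure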; further: potency means the concentration at half of the fitted maximal effect; on ratio activity, negative = inhibition: on the % scale 0 is the no-effect control and ±100 the full control effect); conditions: HEK293H PPARd-UAS-bla, beta-lactamase FRET ratio, antagonist, 17 h; ratio activity, negative = inhibition: at 62 µM (top of the series) unless noted
# How it was run: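 Inhibition of L165041-driven (300 nM final) PPARd signaling is scored in HEK293H UAS-bla cells. Exposure lasts 17 h at 37 C; beta-lactamase activity is then read by FRET substrate fluorescence after 2 h at room temperature.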
# [5] = target: Bile acid receptor (Homo sapiens) (UniProt Q96RI1); assay: qHTS assay to identify small molecule antagonists of the farnesoid-X-receptor (FXR) signaling pathway (AID 743217; active means well fitted inhibition curve with a large enough effect in the signal ratio in the repeat runs, not every such curve was filed as active; inconclusive means weak or mixed curves, or effect the other way; inactive means no such curve, though single readings can be large or run the other way; the % refers to the signal ratio; further: potency means the concentration at half of the fitted maximal effect); conditions: HEK293T FXR-UAS-bla, beta-lactamase ratio, CDCA-stimulated, 16 h
# How it was run: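 Antagonist mode against 50 uM (final) chenodeoxycholic acid stimulation in FXR-bla HEK 293T cells, 16 h at 37 °C. Inhibition detected as reduced beta-lactamase activity via LiveBLAzer B/G FRET fluorescence after 2 h at room temperature.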
# [6] = qHTS assay to identify small molecule antagonists of the peroxisome proliferator-activated receptor gamma (PPARg) signaling pathway - cell viability counter screen (AID 743194); conditions: PPARg-bla HEK293H viability, CellTiter-Glo luminescence, 17 h, co-treated with 50 nM rosiglitazone; activity change, negative = cytotoxicity: at 62.6 µM (top of the series) unless noted; further: nearly all actives have a fitted effect of over 55% in size; further: potency means the concentration at half of the fitted maximal effect
# How it was run: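 Viability was measured as CellTiter-Glo luminescence in GeneBLAzer PPARg UAS-bla HEK293H cells. These cells had been exposed 17 h at 37 C to compounds together with rosiglitazone at 50 nM final, with the beta-lactamase readout taken in the same wells.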
# [7] = qHTS assay for small molecule activators of the heat shock response signaling pathway - cell viability counter screen (AID 743209); conditions: HSE-bla HeLa viability, CellTiter-Glo luminescence, 5 h; activity change, negative = cytotoxicity: at 62.6 µM (top of the series) unless noted; further: potency means the concentration at half of the fitted maximal effect; nearly all actives have a fitted effect of over 50% in size
# How it was run: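 First, HSE-bla HeLa cells were seeded at 1500 cells/well and kept overnight at 37 C. Next, compounds were pinned in and incubated 5 h. After the FRET substrate step, CellTiter-Glo was added and luminescence read 30 min later.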
# [8] = qHTS assay for small molecule activators of the heat shock response signaling pathway (AID 743210; active means well fitted activation curve with a large enough effect in the signal ratio in the repeat runs, with a control signal flat, not every such curve was filed as active; inconclusive means weak or mixed curves; the % refers to the signal ratio; further: potency means the concentration at half of the fitted maximal effect); conditions: HeLa HSE-bla reporter, beta-lactamase ratio, 5 h; activation: at 62.6 µM (top of the series)
# How it was run: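 HeLa HSE-bla cells, overnight plating; cpd in DMSO 5 h, 37 C; LiveBLAzer B/G FRET substrate 2.5 h RT; fluorescence intensity read.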
# [9] = qHTS assay to identify small molecule antagonists of the peroxisome proliferator-activated receptor delta (PPARd) signaling pathway - cell viability counter screen (AID 743213); conditions: PPARd-bla HEK293H viability, CellTiter-Glo luminescence, 17 h; viability change, negative = cytotoxic: at 62 µM (top of the series) unless noted; further: potency means the concentration at half of the fitted maximal effect; nearly all actives have a fitted effect of over 50% in size
# How it was run: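 PPARd-bla HEK293H cells (3000/well) got compound plus 300 nM L165041 agonist for 17 h at 37 C. Viability in the same wells came from CellTiter-Glo luminescence after 30 min at room temperature.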
# [10] = qHTS assay to identify small molecule agonists of the farnesoid-X-receptor (FXR) signaling pathway - cell viability counter screen (AID 743218); conditions: FXR-bla HEK293T viability, CellTiter-Glo luminescence, 16 h; viability change, negative = cytotoxic: at 62.6 µM (top of the series) unless noted; further: nearly all actives have a fitted effect of over 45% in size; further: potency means the concentration at half of the fitted maximal effect
# How it was run: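 Cytotoxicity counter-screen run in parallel, same wells: FXR-UAS-bla HEK 293T cells dosed 16 h at 37 C, viability read by CellTiter-Glo luminescence after 30 min at room temperature.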
# [11] = target: Peroxisome proliferator-activated receptor gamma (Homo sapiens) (UniProt P37231); assay: qHTS assay to identify small molecule agonists of the peroxisome proliferator-activated receptor gamma (PPARg) signaling pathway (AID 743094; active means well fitted activation curve with a large enough effect in the signal ratio in the repeat runs, not every such curve was filed as active; inconclusive means weak or mixed curves, or effect the other way; inactive means no such curve, though single readings can be large or run the other way; the % refers to the signal ratio; further: potency means the concentration at half of the fitted maximal effect); conditions: HEK293H PPARg-UAS-bla, beta-lactamase FRET ratio, 17 h; activation: at 57 µM (top of the series) unless noted
# How it was run: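 Quantitative HTS agonist mode: stable HEK293H line with UAS-beta-lactamase reporter under PPARg control, 17 h compound exposure at 37C, fluorescence after 1 h FRET substrate loading at room temperature.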
# [12] = target: Vitamin D3 receptor (Homo sapiens) (UniProt P11473); assay: qHTS assay to identify small molecule agonists of the vitamin D receptor (VDR) signaling pathway (AID 743222; calls by dose curve; further: potency means the concentration at half of the fitted maximal effect); conditions: HEK293T VDR-UAS-bla, beta-lactamase FRET ratio, 16 h; activation: at 63.5 µM (top of the series) unless noted
# How it was run: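 Quantitative HTS agonist-mode screen: compounds in DMSO were pin-transferred onto VDR-bla cells and incubated 16 h at 37C, 5% CO2. Reporter activity was detected with LiveBLAzer B/G FRET substrate after 2 h at room temperature.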
# [13] = qHTS assay to identify small molecule agonists of the peroxisome proliferator-activated receptor delta (PPARd) signaling pathway - cell viability counter screen (AID 743211); conditions: PPARd-bla HEK293H viability, CellTiter-Glo luminescence, 17 h; activity change, negative = cytotoxicity: at 62.6 µM (top of the series); further: potency means the concentration at half of the fitted maximal effect; nearly all actives have a fitted effect of over 55% in size
# How it was run: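 PPARd-bla HEK293H cells (3000/well) were pre-incubated 5 h at 37 C, then exposed to compound for 17 h at 37 C. After 2 h with LiveBLAzer substrate, CellTiter-Glo was added to the same wells; luminescence read after 30 min at room temperature.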
# [14] = qHTS assay to identify small molecule antagonists of the farnesoid-X-receptor (FXR) signaling pathway - cell viability counter screen (AID 743221; active means well fitted cell-killing curve with a large enough effect in the repeat runs, not every such curve was filed as active; inconclusive means weak or mixed curves, or effect the other way; inactive means no such curve, though single readings can be large or run the other way; further: on the % scale 0 is the no-effect control and ±100 the full control effect; nearly all actives have a fitted effect of over 50% in size); conditions: FXR-bla HEK293T viability, CellTiter-Glo luminescence, 16 h; activity change, negative = cytotoxicity: at 62.6 µM (top of the series)
# How it was run: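 GeneBLAzer FXR-UAS-bla HEK 293T cells, compound plus chenodeoxycholic acid (50 uM final), 16 h at 37 C. CellTiter-Glo added to the same wells after the beta-lactamase read; luminescence read after 30 min at room temperature as viability.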
# [15] = target: Vitamin D3 receptor (Homo sapiens) (UniProt P11473); assay: qHTS assay to identify small molecule antagonists of the vitamin D receptor (VDR) signaling pathway (AID 743223; active means well fitted inhibition curve with a large enough effect in the signal ratio in the repeat runs, not every such curve was filed as active; inconclusive means weak or mixed curves, or effect the other way; inactive means no such curve, though single readings can be large or run the other way; the % refers to the signal ratio; further: on the % scale 0 is the no-effect control and ±100 the full control effect); conditions: VDR-UAS-bla HEK293T, beta-lactamase FRET ratio, 16 h
# How it was run: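 VDR-bla cells were treated with compound plus 3 nM final 1alpha,25-dihydroxyvitamin D3 for 16 h at 37C. Beta-lactamase reporter read by B/G FRET substrate fluorescence after 2 h at room temperature. qHTS format.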
# [16] = qHTS assay to identify small molecule agonists of the vitamin D receptor (VDR) signaling pathway - cell viability counter screen (AID 743224); conditions: VDR-bla HEK293T viability, CellTiter-Glo luminescence, 16 h; activity change, negative = cytotoxicity: at 62.6 µM (top of the series) unless noted; further: potency means the concentration at half of the fitted maximal effect; nearly all actives have a fitted effect of over 50% in size
# How it was run: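 Viability is measured in the same wells as the VDR-bla reporter assay: after 16 h compound treatment and 2 h substrate loading, CellTiter-Glo is added and luminescence read 30 min later.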
# [17] = qHTS assay to identify small molecule antagonists of the vitamin D receptor (VDR) signaling pathway - cell viability counter screen (AID 743225); conditions: VDR-bla HEK293T viability, CellTiter-Glo luminescence, 16 h; viability change, negative = cytotoxic: at 61 µM (top of the series) unless noted
# How it was run: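 VDR-UAS-bla HEK 293T cells were plated and incubated 4 h at 37C, then dosed with compound plus 3 nM (final) 1-alpha,25-dihydroxyvitamin D3 for 16 h. After the 2 h beta-lactamase read, viability in the same wells was read as CellTiter-Glo luminescence after 30 min at room temperature.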
# [18] = ratio activity, negative = inhibition: at 62.6 µM (top of the series) unless noted
# [19] = activity change, negative = inhibition: at 62.6 µM (top of the series) unless noted
# Tags describe the fitted curve by direction and shape or compound fluorescence and quenching.
# Chain of UniProt Q96RI1 (Q96RI1 whole entry, looked up): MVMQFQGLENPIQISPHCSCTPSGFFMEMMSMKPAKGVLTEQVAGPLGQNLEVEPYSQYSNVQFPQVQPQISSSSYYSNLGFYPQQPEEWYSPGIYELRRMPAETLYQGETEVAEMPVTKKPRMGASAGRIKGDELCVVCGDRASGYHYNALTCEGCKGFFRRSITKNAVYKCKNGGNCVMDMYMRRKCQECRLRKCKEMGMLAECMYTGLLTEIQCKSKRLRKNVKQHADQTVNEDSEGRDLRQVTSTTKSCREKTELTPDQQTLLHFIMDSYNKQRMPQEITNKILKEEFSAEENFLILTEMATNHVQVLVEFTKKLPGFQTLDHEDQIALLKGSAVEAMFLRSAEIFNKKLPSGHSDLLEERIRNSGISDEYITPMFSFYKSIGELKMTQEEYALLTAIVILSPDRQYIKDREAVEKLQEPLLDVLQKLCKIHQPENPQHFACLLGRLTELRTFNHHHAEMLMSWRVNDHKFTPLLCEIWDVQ
# Chain of UniProt P11473 (P11473 whole entry, looked up): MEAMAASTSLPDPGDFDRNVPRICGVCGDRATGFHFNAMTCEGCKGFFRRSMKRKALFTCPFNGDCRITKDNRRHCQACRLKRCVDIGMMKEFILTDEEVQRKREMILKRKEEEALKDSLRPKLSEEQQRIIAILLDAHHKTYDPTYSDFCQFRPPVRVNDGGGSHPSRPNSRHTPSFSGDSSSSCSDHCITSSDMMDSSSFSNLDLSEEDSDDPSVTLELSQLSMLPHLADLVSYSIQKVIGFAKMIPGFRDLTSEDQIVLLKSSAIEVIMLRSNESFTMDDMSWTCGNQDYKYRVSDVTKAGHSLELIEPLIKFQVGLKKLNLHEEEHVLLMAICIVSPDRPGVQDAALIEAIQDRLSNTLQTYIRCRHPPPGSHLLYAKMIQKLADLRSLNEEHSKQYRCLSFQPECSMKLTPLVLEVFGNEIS
# Chain of UniProt P37231 (P37231 whole entry, looked up): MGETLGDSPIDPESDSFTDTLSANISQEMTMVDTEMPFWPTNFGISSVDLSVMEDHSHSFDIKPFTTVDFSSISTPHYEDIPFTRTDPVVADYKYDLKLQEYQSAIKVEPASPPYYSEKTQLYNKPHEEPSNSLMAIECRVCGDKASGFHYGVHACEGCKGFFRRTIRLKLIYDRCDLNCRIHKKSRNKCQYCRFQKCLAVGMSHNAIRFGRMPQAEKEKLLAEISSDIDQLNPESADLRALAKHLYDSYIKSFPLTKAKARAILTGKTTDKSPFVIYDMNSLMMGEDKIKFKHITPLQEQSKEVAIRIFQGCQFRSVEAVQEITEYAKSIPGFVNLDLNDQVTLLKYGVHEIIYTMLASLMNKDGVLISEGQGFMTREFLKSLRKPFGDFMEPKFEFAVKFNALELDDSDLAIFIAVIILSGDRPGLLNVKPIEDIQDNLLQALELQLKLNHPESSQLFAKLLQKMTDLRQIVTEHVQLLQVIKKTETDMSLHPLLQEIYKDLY
# Chain of UniProt Q03181 (Q03181 whole entry, looked up): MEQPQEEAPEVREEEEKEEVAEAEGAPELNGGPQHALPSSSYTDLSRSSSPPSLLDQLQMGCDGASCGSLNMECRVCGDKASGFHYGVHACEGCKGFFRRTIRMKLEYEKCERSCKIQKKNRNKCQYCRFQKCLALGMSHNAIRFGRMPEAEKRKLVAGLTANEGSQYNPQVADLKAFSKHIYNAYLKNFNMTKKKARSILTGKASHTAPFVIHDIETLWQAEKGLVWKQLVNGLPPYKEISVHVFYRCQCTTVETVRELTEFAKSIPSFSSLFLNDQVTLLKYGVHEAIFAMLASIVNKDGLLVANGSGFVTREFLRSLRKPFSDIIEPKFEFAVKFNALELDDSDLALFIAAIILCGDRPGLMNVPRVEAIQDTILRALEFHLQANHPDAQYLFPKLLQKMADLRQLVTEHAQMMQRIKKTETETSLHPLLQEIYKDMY
smiles,measurement,setting,value
CCCCCCCCCC,"ratio activity, negative = inhibition",[1]; at 62.6 µM (top of the series),inactive: 3.99%
same,"ratio activity, negative = inhibition",[1]; [18],inconclusive: -21.3% [at 81.1 µM]
same,Potency,[2],"inconclusive: 30.6 µM [rising, full curve, poor fit]"
same,Potency,[3],inactive
same,"ratio activity, negative = inhibition",[4],inconclusive: -20.1%
same,Potency,[5]; [19],inactive
Cc1cc(C(C)(C)C)c(O)c(C(C)(C)C)c1,"ratio activity, negative = inhibition",[1]; at 62.6 µM (top of the series),inactive: 22.8% and inactive: 0.219%
same,"ratio activity, negative = inhibition",[1]; [18],inconclusive: 5.99%
same,"activity change, negative = cytotoxicity",[6],inconclusive: -0.279%
same,Potency,[2],"inconclusive: 2.37 µM [falling, full curve]"
same,Potency,[7],"inconclusive: 55.1 µM [cytotoxic, single point]"
same,Potency,[8],"inconclusive: 49.1 µM [falling, partial curve]"
same,Potency,[9],"inconclusive: 196 nM [cytotoxic, single point] and inconclusive: 119 nM [cytotoxic, full curve, poor fit]"
same,Potency,[4],"inconclusive: 4.91 µM [falling, single point]"
same,Potency,[5]; [19],"inconclusive: 49.1 µM [inhibitor, single point]"
same,Potency,[10],inactive
O=C(O)c1ccc(S(=O)(=O)N(Cl)Cl)cc1,Potency,[11],"inconclusive: 0.601 µM [rising, partial curve]"
same,Potency,[2],active: 27.5 µM
same,Potency,[12],"inconclusive: 33.5 µM [falling, partial curve, poor fit]"
CCCCC/C(C=O)=C\c1ccccc1,Potency,[11],inactive
same,Potency,[6],"inconclusive: 27.5 µM [cytotoxic, full curve, poor fit]"
same,Potency,[2],inconclusive: 27.3 µM
same,activation,[2],inconclusive: 6.83%
same,Potency,[8],"inconclusive: 55 µM [falling, partial curve, poor fit]"
same,Potency,[13],"inconclusive: 61.7 µM [cytotoxic, single point]"
same,Potency,[3],inactive
same,"activity change, negative = inhibition",[5]; [19],inconclusive: 11.1%
same,"activity change, negative = inhibition",[5]; at 62.6 µM (top of the series),inactive: 0.318% and inactive: -9.87%
same,Potency,[14],inactive
Oc1ccc2cc(SSc3ccc4cc(O)ccc4c3)ccc2c1,activation,[11],inconclusive: -15.6%
same,Potency,[8],inconclusive: 55 µM and inconclusive: 47.1 µM
same,Potency,[13],"inconclusive: 55 µM [cytotoxic, single point] and inconclusive: 61.6 µM [cytotoxic, partial curve, poor fit]"
same,Potency,[3],inconclusive: 30.9 µM
same,Potency,[9],"inconclusive: 61.7 µM [cytotoxic, single point] and inconclusive: 21.9 µM [cytotoxic, single point]"
same,"activity change, negative = inhibition",[5]; [19],inconclusive: -20.2%
same,Potency,[10],"inconclusive: 43.7 µM [cytotoxic, partial curve, poor fit] and inconclusive: 11 nM [cytotoxic, full curve, poor fit]"
CCCCC(CC)COC(=O)c1ccc(N(C)C)cc1 (centres undefined),"ratio activity, negative = inhibition",[1]; at 62.6 µM (top of the series),inactive: -9.56% and inactive: 4.31%
same,"ratio activity, negative = inhibition",[1]; [18],inconclusive: -0.634% [at 81.1 µM]
same,Potency,[6],"inconclusive: 6.95 µM [rising, partial curve, poor fit]"
same,activation,[2],inconclusive: -4.45%
same,Potency,[8],inactive
same,Potency,[9],"inconclusive: 24.7 µM [cytotoxic, single point]"
same,Potency,[5]; [19],"inconclusive: 11 µM [inhibitor, full curve]"
same,"activity change, negative = inhibition",[5]; [19],inconclusive: -12.1% and inconclusive: -16.3%
same,Potency,[10],"inconclusive: 19.5 µM [rising, partial curve, poor fit]"
same,"viability change, negative = cytotoxic",[10],inconclusive: 44.3% [at 81.1 µM]
same,"activity change, negative = inhibition",[15]; at 61 µM (top of the series),inconclusive: -27.7% and inactive: 1.6%
same,"activity change, negative = inhibition",[15]; at 78.8 µM (top of the series),inconclusive: 11%
same,Potency,[16],"inconclusive: 0.0168 µM [rising, full curve, poor fit]"
O=c1ccc2ccccc2o1,"ratio activity, negative = inhibition",[1]; at 62.6 µM (top of the series),inactive: 1.98%
same,"ratio activity, negative = inhibition",[1]; at 81.1 µM (top of the series),inactive: -0.553%
same,"ratio activity, negative = inhibition",[1]; [18],inconclusive: 22.3%
same,Potency,[9],"inconclusive: 11.9 µM [rising, partial curve, poor fit]"
CC1=NN(c2ccccc2)C(=O)C1,Potency,[1]; [18],"inconclusive: 55.3 µM [inhibitor, single point]"
same,"ratio activity, negative = inhibition",[1]; [18],inconclusive: -26.1% and inconclusive: -23.9%
same,Potency,[2],"inconclusive: 48.6 µM [falling, partial curve]"
same,Potency,[5]; [19],inactive
same,Potency,[10],inactive
same,Potency,[17],"inconclusive: 0.195 µM [cytotoxic, single point]"
